From the supplement of paper PMC8728848
The list shows a part of the results.

Tests used:
Assay in all cases: glycan array binding signal (z-score within array); higher = stronger binding
Settings in all cases: glycan notation: IUPAC condensed, linker removed
[1] = target: Neu5Ac(a2-6)Gal(b1-4)GlcNAc(b1-2)Man(a1-3)[Neu5Ac(a2-6)Gal(b1-4)GlcNAc(b1-2)Man(a1-6)]Man(b1-4)GlcNAc(b1-4)GlcNAc
Summary of the method: (§1)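 The binding signal is a Z-score computed within each array and averaged over linkers. Arrays of the same protein sequence at different concentrations or buffers were also averaged together. Data originate from 3228 arrays in the Consortium for Functional Glycomics database, kept only where the protein sequence was available.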

[2] = target: Neu5Ac(a2-6)Gal(b1-4)GlcNAc(b1-2)Man(a1-6)Man(b1-4)GlcNAc(b1-4)GlcNAc
Summary of the method: as §1

[3] = target: Neu5Ac(a2-6)Gal(b1-4)GlcNAc(b1-2)Man(a1-6)[Gal(b1-4)GlcNAc(b1-2)Man(a1-3)]Man(b1-4)GlcNAc(b1-4)GlcNAc
Summary of the method: as §1

[4] = target: Neu5Ac(a2-6)Gal(b1-4)GlcNAc(b1-2)Man(a1-6)[GlcNAc(b1-2)Man(a1-3)]Man(b1-4)GlcNAc(b1-4)GlcNAc
Summary of the method: as §1

[5] = target: Neu5Ac(a2-6)Gal(b1-4)GlcNAc(b1-2)Man(a1-6)[Man(a1-3)]Man(b1-4)GlcNAc(b1-4)GlcNAc
Summary of the method: as §1

[6] = target: Neu5Ac(a2-6)Gal(b1-4)GlcNAc(b1-3)Gal(b1-3)GlcNAc
Summary of the method: as §1

[7] = target: Neu5Ac(a2-6)Gal(b1-4)GlcNAc(b1-3)Gal(b1-4)GlcNAc
Summary of the method: as §1

[8] = target: Neu5Ac(a2-6)Gal(b1-4)GlcNAc(b1-3)Gal(b1-4)GlcNAc(b1-3)Gal(b1-4)GlcNAc
Summary of the method: as §1

[9] = target: Neu5Ac(a2-6)Gal(b1-4)GlcNAc(b1-3)Gal(b1-4)[Fuc(a1-3)]GlcNAc(b1-3)Gal(b1-4)[Fuc(a1-3)]GlcNAc
Summary of the method: as §1

[10] = target: Neu5Ac(a2-6)Gal(b1-4)GlcNAc(b1-3)GalNAc
Summary of the method: as §1

[11] = target: Neu5Ac(a2-6)Gal(b1-4)GlcNAc6S
Summary of the method: as §1

[12] = target: Neu5Ac(a2-6)GalNAc
Summary of the method: as §1

[13] = target: Neu5Ac(a2-6)GalNAc(b1-4)GlcNAc
Summary of the method: as §1

[14] = target: Neu5Ac(a2-6)GlcNAc(b1-4)GlcNAc
Summary of the method: as §1

[15] = target: Neu5Ac(a2-6)GlcNAc(b1-4)GlcNAc(b1-4)GlcNAc
Summary of the method: as §1

[16] = target: Neu5Ac(a2-8)Neu5Ac
Summary of the method: as §1

[17] = target: Neu5Ac(a2-8)Neu5Ac(a2-3)Gal(b1-4)Glc
Summary of the method: as §1

[18] = target: Neu5Ac(a2-8)Neu5Ac(a2-3)[GalNAc(b1-4)]Gal(b1-4)Glc
Summary of the method: as §1

[19] = target: Neu5Ac(a2-8)Neu5Ac(a2-8)Neu5Ac
Summary of the method: as §1

[20] = target: Neu5Ac(a2-8)Neu5Ac(a2-8)Neu5Ac(a2-3)Gal(b1-4)Glc
Summary of the method: as §1

[21] = target: Neu5Ac(a2-8)Neu5Ac(a2-8)Neu5Ac(a2-3)[GalNAc(b1-4)]Gal(b1-4)Glc
Summary of the method: as §1

[22] = target: Neu5Ac(a2-8)Neu5Ac(a2-8)Neu5Ac(a2-8)Neu5Ac(a2-3)[GalNAc(b1-4)]Gal(b1-4)Glc
Summary of the method: as §1

[23] = target: Neu5Ac(b2-6)Gal(b1-4)GlcNAc
Summary of the method: as §1

[24] = target: Neu5Ac(b2-6)GalNAc
Summary of the method: as §1

[25] = target: Neu5Ac9Ac(a2-3)Gal(b1-3)GlcNAc
Summary of the method: as §1

[26] = target: Neu5Ac9Ac(a2-3)Gal(b1-4)GlcNAc
Summary of the method: as §1

[27] = target: Neu5Ac9Ac(a2-6)Gal(b1-4)GlcNAc
Summary of the method: as §1

[28] = target: Neu5Gc(a2-3)Gal(b1-3)GlcNAc
Summary of the method: as §1

[29] = target: Neu5Gc(a2-3)Gal(b1-3)[Fuc(a1-4)]GlcNAc
Summary of the method: as §1

[30] = target: Neu5Gc(a2-3)Gal(b1-4)Glc
Summary of the method: as §1

[31] = target: Neu5Gc(a2-3)Gal(b1-4)GlcNAc
Summary of the method: as §1

[32] = target: Neu5Gc(a2-3)Gal(b1-4)[Fuc(a1-3)]GlcNAc
Summary of the method: as §1

[33] = target: Neu5Gc(a2-6)Gal(b1-4)GlcNAc
Summary of the method: as §1

[34] = target: Neu5Gc(a2-6)GalNAc
Summary of the method: as §1

[35] = target: Neu5Gc(b2-6)Gal(b1-4)GlcNAc
Summary of the method: as §1

B1: SLP (Clostridium difficile), Q183M8 (protein)
chain: MATTGTQGYTVVKNDWKKAVKQLQDGLKDNSIGKITVSFNDGVVGEVAPKSANKKADRDAAAEKLYNLVNTQLDKLGDGDYVDFSVDYNLENKIITNQADAEAIVTKLNSLNEKTLIDIATKDTFGMVSKTQDSEGKNVAATKALKVKDVATFGLKSGGSEDTGYVVEMKAGAVEDKYGKVGDSTAGIAINLPSTGLEYAGKGTTIDFNKTLKVDVTGGSTPSAVAVSGFVTKDDTDLAKSGTINVRVINAKEESIDIDASSYTSAENLAKRYVFDPDEISEAYKAIVALQNDGIESNLVQLVNGKYQVIFYPEGKRLETKSLEHHHHHH
glycan array binding signal (z-score) [1]: -0.148
glycan array binding signal (z-score) [2]: -0.195
glycan array binding signal (z-score) [3]: -0.174
glycan array binding signal (z-score) [4]: -0.182
glycan array binding signal (z-score) [5]: -0.17
glycan array binding signal (z-score) [6]: -0.201
glycan array binding signal (z-score) [7]: -0.21
glycan array binding signal (z-score) [8]: -0.187
glycan array binding signal (z-score) [9]: -0.157
glycan array binding signal (z-score) [10]: -0.094
glycan array binding signal (z-score) [11]: -0.129
glycan array binding signal (z-score) [12]: -0.177
glycan array binding signal (z-score) [13]: -0.195
glycan array binding signal (z-score) [14]: -0.212
glycan array binding signal (z-score) [15]: -0.188
glycan array binding signal (z-score) [16]: -0.184
glycan array binding signal (z-score) [17]: -0.169
glycan array binding signal (z-score) [18]: -0.156
glycan array binding signal (z-score) [19]: -0.184
glycan array binding signal (z-score) [20]: -0.154
glycan array binding signal (z-score) [21]: -0.118
glycan array binding signal (z-score) [22]: -0.197
glycan array binding signal (z-score) [23]: -0.154
glycan array binding signal (z-score) [24]: -0.167
glycan array binding signal (z-score) [25]: -0.201
glycan array binding signal (z-score) [26]: -0.188
glycan array binding signal (z-score) [27]: -0.175
glycan array binding signal (z-score) [28]: -0.148
glycan array binding signal (z-score) [29]: -0.173
glycan array binding signal (z-score) [30]: -0.17
glycan array binding signal (z-score) [31]: -0.204
glycan array binding signal (z-score) [32]: -0.166
glycan array binding signal (z-score) [33]: -0.189
glycan array binding signal (z-score) [34]: -0.182
glycan array binding signal (z-score) [35]: -0.172
